For the experiment, the target named is T1, human CXCR2 (human, UniProt P25025 1-360).
T1 sequence (looked up): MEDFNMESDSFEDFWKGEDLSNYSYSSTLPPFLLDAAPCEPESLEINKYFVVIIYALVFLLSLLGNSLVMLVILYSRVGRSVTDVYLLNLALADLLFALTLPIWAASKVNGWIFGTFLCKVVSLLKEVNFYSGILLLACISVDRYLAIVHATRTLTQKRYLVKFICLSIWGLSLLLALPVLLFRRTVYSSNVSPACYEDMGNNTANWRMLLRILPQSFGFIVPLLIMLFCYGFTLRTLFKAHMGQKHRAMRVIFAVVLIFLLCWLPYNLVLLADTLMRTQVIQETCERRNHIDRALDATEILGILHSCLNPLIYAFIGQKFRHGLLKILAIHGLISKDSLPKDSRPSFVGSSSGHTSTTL
The experiment can be described thus: cell-based or functional assay.

B1: human CXCL8 point mutant A35P (ligand)
chain: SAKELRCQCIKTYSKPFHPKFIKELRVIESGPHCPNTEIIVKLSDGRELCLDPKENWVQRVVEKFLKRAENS
For the molecule B1, the “EC50 (U937 FLIPR activity)” value was determined as 1.9 µg/mL.

B2: human CXCL8 point mutant L49A (ligand)
chain: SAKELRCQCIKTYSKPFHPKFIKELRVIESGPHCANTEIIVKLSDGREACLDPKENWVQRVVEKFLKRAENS
As to B2, the “EC50 (U937 FLIPR activity)” value amounted to 5.6 µg/mL.

The record behind these values is US20180362631A1 (Eli Lilly, published 2018).
